Results reported in patent US20250019377A1 (JACOBIO PHARMACEUTICALS CO., LTD, priority 2021, published 2025).

Key:
[1] = target: K-Ras WT (Homo sapiens, UniProt P01116); experiment: SOS1 catalyzed nucleotide exchange assay (GDP form K-Ras), K-Ras WT; details: read-out: K-Ras WT GDP Biochemical Activity (IC50)
[2] = target: K-Ras G12R (Homo sapiens, UniProt P01116, G12R); experiment: SOS1 catalyzed nucleotide exchange assay (GDP form K-Ras), K-Ras G12R; details: read-out: K-Ras G12R GDP Biochemical Activity (IC50)
[3] = target: K-Ras Q61H (Homo sapiens, UniProt P01116, Q61H); experiment: SOS1 catalyzed nucleotide exchange assay (GDP form K-Ras), K-Ras Q61H; details: read-out: K-Ras Q61H GDP Biochemical Activity (IC50)
[4] = target: T1, K-Ras G12V (Homo sapiens, UniProt P01116, G12V); experiment: SOS1 catalyzed nucleotide exchange assay (GDP form K-Ras), K-Ras G12V; details: read-out: K-Ras G12V GDP Biochemical Activity (IC50)
[5] = target: K-Ras G12D (Homo sapiens, UniProt P01116, G12D); experiment: GTP-K-Ras and cRAF interaction assay (GppNp-K-Ras), K-Ras G12D; details: read-out: K-Ras G12D GppNp Biochemical Activity (IC50)
[6] = target: T1, K-Ras G12V; experiment: GTP-K-Ras and cRAF interaction assay (GppNp-K-Ras), K-Ras G12V; details: read-out: K-Ras G12V GppNp Biochemical Activity (IC50)
[7] = target: K-Ras G13D (Homo sapiens, UniProt P01116, G13D); experiment: GTP-K-Ras and cRAF interaction assay (GppNp-K-Ras), K-Ras G13D; details: read-out: K-Ras G13D GppNp Biochemical Activity (IC50)

## C#Cc1c(F)ccc2cc(O)cc(-c3ccc4c(N5CCCOCC5)nc(OC[C@@]56CCCN5C[C@H](F)C6)nc4c3F)c12 [Compound 147, 5-ethynyl-6-fluoro-4-(8-fluoro-2-(((2R,7aS)-2-fluorotetrahydro-1H-pyrrolizin-7a(5H)-yl)methoxy)-4-(1,4-oxazepan-4-yl)quinazolin-7-yl)naphthalen-2-ol]
[1]
  IC50: 1.87 nM

## C#Cc1c(F)ccc2cc(O)cc(-c3ncc4c(N5CCCOCC5)nc(OCC56CCCN5CC(SC)C6)nc4c3F)c12 (stereo not shown) [Compound 100, 5-ethynyl-6-fluoro-4-(8-fluoro-2-((2-(methyl-thio)tetrahydro-1H-pyrrolizin-7a(5H)-yl)methoxy)-4-(1,4-oxazepan-4-yl)pyrido [4,3-d]pyrimidin-7-yl)naphthalen-2-ol]
[2]
  IC50: 1.41 nM
[3]
  IC50: 0.844 nM

## C#Cc1c(F)ccc2cc(O)cc(-c3ncc4c(N5CCOC[C@@H](CC#N)C5)nc(OC[C@@]56CCCN5C[C@H](F)C6)nc4c3F)c12 (single isomer, unassigned) [Compound 14A]
[4]
  IC50: 9.61 nM
[5]
  IC50: 210 nM
[6]
  IC50: 1480 nM
[7]
  IC50: 26.8 nM
